According to the supplement of paper PMC12355420:
Structures can show the parent of a compound that is named as a salt. The list shows a part of the results. Single values are uncertain, as repeats are few or missing.
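Also: primary screen of an FDA-approved drug library in HeLa reporter cells in 96-well format, CellMask signal normalized to DMSO-treated wells set as 1, under 0.5 deemed highly cytotoxic.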

What follows are molecules tested on HeLa VPS33A reporter cells (assay: relative cell viability (CellMask signal) vs DMSO (fraction of DMSO); HeLa model of a glycosaminoglycan (GAG) storage disease; KI is knock-in and KO knock-out; SDC1 is syndecan 1; higher = less cytotoxic). Conditions: 50 µM; 24 h.
Work on CN(C)C(=O)N[C@H]1CC[C@H](CCN2CCN(c3cccc(Cl)c3Cl)CC2)CC1 [Cariprazine] yielded a relative cell viability of 1.13.
For CCS(=O)(=O)CCn1c([N+](=O)[O-])cnc1C [Tinidazole], the relative cell viability was 0.982.
Work on CCOC(=O)[C@H](CCc1ccccc1)N[C@@H](C)C(=O)N1CCC[C@H]1C(=O)O [Enalapril Maleate] yielded a relative cell viability of 1.01.
In the case of C[C@@H]1O[C@@H](OC[C@H]2O[C@@H](Oc3c(-c4ccc(O)c(O)c4)oc4cc(O)cc(O)c4c3=O)[C@H](O)[C@@H](O)[C@@H]2O)[C@H](O)[C@H](O)[C@H]1O [Rutin], the relative cell viability is reported as 1.06.
For OCC(CO)N[C@H]1C[C@](O)(CO)[C@@H](O)[C@H](O)[C@H]1O [Voglibose], the relative cell viability was 1.01.
Work on CCN1CCN(c2cc(-c3ccc(F)cc3)c3c(n2)CCCCCC3)CC1 [Blonanserin] yielded a relative cell viability of 1.32.
With C[C@@H]1NC(=O)[C@@H](N)CNC(=O)[C@H](C2CCNC(=N)N2)NC(=O)/C(=C/NC(N)=O)NC(=O)[C@H](CNC(=O)CC(N)CCCN)NC1=O.N=C1NCC[C@H]([C@@H]2NC(=O)/C(=C/NC(N)=O)NC(=O)[C@H](CNC(=O)C[C@@H](N)CCCN)NC(=O)[C@H](CO)NC(=O)[C@@H](N)CNC2=O)N1 [Capreomycin Sulfate] the relative cell viability was 1.03.
In the case of Cc1ncc(C[n+]2csc(CCO)c2C)c(N)n1 [Thiamine HCl (Vitamin B1)], the relative cell viability is reported as 1.07.
In the case of Cc1nc(NC(=O)N2CCC[C@H]2C(N)=O)sc1-c1ccnc(C(C)(C)C(F)(F)F)c1, the relative cell viability is reported as 1.23.
Cc1ccc2c(c1)c1c(n2CCc2ccc(C)nc2)CCN(C)C1 [Latrepirdine] was tested, and the relative cell viability was 1.03.
